Laboratory results: patent publication EP2886531B1, “Aspartic acid derivatives” (Merck Patent GmbH, priority 2013, dated 2015)

Procedure: The solid phase peptide synthesis is carried out following the Fmoc/tBu strategy (Atherton E., et.al., J.Chem. Soc., Chem. Comm., 539 (1978)). 0.44 g of Fmoc-Ile-Wang resin (0.54 mmol/g) are used in an ABI 431 for automated peptide synthesis employing HBTU/ ethyldiisopropylamine (3.6 eq./8.0 eq.) activation for amide bond formation and a solution of 20 % piperidine in dimethylformamide for Fmoc removal. The corresponding amino acids Fmoc-Val-OH, Fmoc-Lvs(Boc)-OH, Fmoc-Asp(OtBu/OMpe/ OEpe/OPhp)-OH, Fmoc-Gly-OH and Fmoc-Tyr(tBu)-OH are used in a four fold excess. […]
Further 50 mg peptide resin samples are treated with a solution of 20 % piperidine in dimethylformamide over 18 hours to simulate multiple Fmoc removals. Afterwards the peptide resin samples are exposed to 95% TFA in water for final cleavage in analogy to the above described protocol and all relevant impurities are identified by MS analysis (Xevo Waters Q-TOF-1, lock mass = 556.277 (leu-enkephaline)) and quantified by HPLC analysis (HPLC conditions: Halo Peptide 2,7 µm (150x4.6 mm) at 40 °C; water acetonitrile gradient of 5 % to 35 % B over 30 min where buffer A is 0.1% TFA and 2 % acetonitrile in water and buffer B is 0.1 % TFA in acetonitrile, flow 1 ml/min). […]

For `CCCC(CCC)(CCC)OC(=O)C[C@H](NC(=O)OCC1c2ccccc2-c2ccccc21)C(=O)O` [Php, (2S)-N-((9H-fluoren-9-ylmethyloxy)carbonyl)aspartic acid-4-(4-(n-propyl)hept-4-yl) ester], the “Half-life in 10' cycles” value was 356 10' cycles.

With `CCC(CC)(CC)OC(=O)C[C@H](NC(=O)OCC1c2ccccc2-c2ccccc21)C(=O)O` [Epe, (2S)-N-((9H-fluoren-9-ylmethyloxy)carbonyl)aspartic acid-4-((3-ethyl)pent-3-yl) ester] the “Half-life in 10' cycles” value was 175 10' cycles.
